From publication PMC4336329 (PLoS ONE, 2015)
The whole screen tested about 310,000 compounds, of which about 2,200 (0.71%) showed an effect of 50% or more. Effects have a minus sign here. Some of the results follow.

Target: human ether-à-go-go-related gene (hERG) potassium channel (human, UniProt Q12809)
Experiment: primary screen, population patch clamp on CHO cells stably expressing hERG

human ether-à-go-go-related gene (hERG) potassium channel, sequence (Q12809 whole entry, looked up): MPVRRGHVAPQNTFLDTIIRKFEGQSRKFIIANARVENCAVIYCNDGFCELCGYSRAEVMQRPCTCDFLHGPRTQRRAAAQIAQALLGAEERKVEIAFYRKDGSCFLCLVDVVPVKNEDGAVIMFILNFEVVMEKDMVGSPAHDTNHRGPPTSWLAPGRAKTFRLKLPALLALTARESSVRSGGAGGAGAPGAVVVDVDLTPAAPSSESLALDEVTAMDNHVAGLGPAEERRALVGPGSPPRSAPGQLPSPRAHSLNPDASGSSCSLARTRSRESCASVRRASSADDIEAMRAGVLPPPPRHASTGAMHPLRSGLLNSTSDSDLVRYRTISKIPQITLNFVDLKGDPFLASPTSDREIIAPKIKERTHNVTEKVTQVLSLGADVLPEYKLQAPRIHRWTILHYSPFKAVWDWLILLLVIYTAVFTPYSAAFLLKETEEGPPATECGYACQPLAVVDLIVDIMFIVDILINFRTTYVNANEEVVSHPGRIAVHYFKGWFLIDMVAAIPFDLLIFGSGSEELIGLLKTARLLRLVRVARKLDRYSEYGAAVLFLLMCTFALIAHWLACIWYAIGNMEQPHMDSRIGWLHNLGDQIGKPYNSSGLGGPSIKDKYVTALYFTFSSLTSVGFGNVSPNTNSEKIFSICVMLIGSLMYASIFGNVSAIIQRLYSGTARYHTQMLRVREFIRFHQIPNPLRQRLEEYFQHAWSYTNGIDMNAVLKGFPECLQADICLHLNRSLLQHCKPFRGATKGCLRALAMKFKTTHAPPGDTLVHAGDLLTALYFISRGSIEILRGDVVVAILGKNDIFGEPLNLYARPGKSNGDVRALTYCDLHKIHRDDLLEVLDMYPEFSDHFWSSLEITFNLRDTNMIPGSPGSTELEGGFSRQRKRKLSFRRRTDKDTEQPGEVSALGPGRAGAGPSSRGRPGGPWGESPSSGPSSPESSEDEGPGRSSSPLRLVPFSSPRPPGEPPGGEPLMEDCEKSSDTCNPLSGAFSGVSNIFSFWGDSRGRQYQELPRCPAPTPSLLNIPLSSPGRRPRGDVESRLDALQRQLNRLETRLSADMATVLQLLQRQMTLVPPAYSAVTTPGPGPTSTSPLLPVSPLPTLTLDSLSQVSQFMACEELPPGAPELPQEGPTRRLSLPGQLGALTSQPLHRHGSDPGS

Going from `CC(=O)N(Cc1ccc(Cl)cc1)c1cnccn1` to `O=C(CCCOc1ccc(Cl)cc1)Nc1nncs1`, the “hERG current change (%, negative = inhibition) at 1uM” value falls from 16.8% to -12.5%.

First: O=C(COC(=O)c1cccc(S(=O)(=O)N2CCN(c3ccccc3)CC2)c1)NCC1CCCO1 (centres unmarked)
Second: CCN(c1ccccc1)S(=O)(=O)c1cccc(C(=O)N2CCN(S(=O)(=O)c3ccccc3)CC2)c1
The “hERG current change (%, negative = inhibition) at 1uM” value of the first is higher: 10.3% for the first, 7.08% for the second.

Going from `N[C@@]1(C(=O)O)CC[C@@H](C(=O)O)C1.O` to `CCOC(=O)C1CCCN(C(=O)Cn2cccc2C(=O)c2ccccc2)C1` (centres unmarked), the “hERG current change (%, negative = inhibition) at 1uM” value falls from 8.45% to -7.46%.

First: Cc1ncc([N+](=O)[O-])n1CC(=O)N/N=C/c1ccc(F)cc1
Second: Nc1nonc1C(=O)N/N=C/c1ccncc1
The “hERG current change (%, negative = inhibition) at 1uM” value of the first is lower: -2.69% for the first, 2.6% for the second.

Compared with `Cn1nc(-c2ccccc2)c2cc(C(=O)O)sc21`, `CCOC(=O)c1nnn(-c2ccccc2)c1C` is lower in “hERG current change (%, negative = inhibition) at 1uM” value: 22.5% for the first, -7.79% for the second.

First: CC(=O)NC1(c2nnnn2CCOC(=O)Nc2ccc(Cl)cc2)CCCC1
Second: COc1ccc(NC(=O)CSc2nnc(-c3cccnc3)n2C)cc1
The “hERG current change (%, negative = inhibition) at 1uM” value of the first is lower: 4.85% for the first, 12.9% for the second.

Compared with `COC(=O)CSc1nc(C)c(C)c(C)c1C(N)=O`, `COC(=O)CSc1nc(C)c(C(=O)Nc2ccccc2C)c(-c2ccc(Cl)cc2)c1C#N` is higher in “hERG current change (%, negative = inhibition) at 1uM” value: 1.4% for the first, 11.6% for the second.

Going from `COCCCNC(=O)CCCn1c(=O)[nH]c2ccccc2c1=O` to `Cc1cccc(C)c1NC(=O)c1c(O)c2ccccc2[nH]c1=O`, the “hERG current change (%, negative = inhibition) at 1uM” value rises from 14.9% to 15.5%.

Going from `O=C(O)c1ccc2[nH]c3c(c2c1)CCCC3` to `O=C(NC1CCN(Cc2ccccc2)CC1)c1ccc(Cn2c(=S)[nH]c3ccc(N4CCOCC4)cc3c2=O)cc1`, the “hERG current change (%, negative = inhibition) at 1uM” value falls from 15.2% to 4.15%.

Going from `CC1=CC(=O)C(C(C)=Nc2ccccc2Cl)C(=O)O1` (centres unmarked) to `COc1ccc2oc(-c3ccccc3[N+](=O)[O-])cc(=O)c2c1`, the “hERG current change (%, negative = inhibition) at 1uM” value rises from -4.74% to 4.52%.

First: O=C(/C=C/c1ccccc1)N/C(=C/c1ccccc1)C(=O)Nc1ccccc1O
Second: O=C(Nc1ccccc1)/C(=C/c1ccc([N+](=O)[O-])cc1)NC(=O)c1ccccc1
The “hERG current change (%, negative = inhibition) at 1uM” value of the first is lower: -5.04% for the first, 12.9% for the second.

Compared with `O=c1c(Cc2c(F)cccc2Cl)c(O)ccn1Cc1ccc(F)cc1`, `Nc1nc(SCc2ccc(Br)cc2)[nH]c(=O)c1-c1ccccc1` is higher in “hERG current change (%, negative = inhibition) at 1uM” value: 1.36% for the first, 9.34% for the second.

Compared with `Cc1ccc(NC(=O)CN2CCC(Cc3ccccc3)CC2)cc1S(=O)(=O)N(C)C.O=C(O)C(=O)O`, `Cc1ccc(N(CC(N)=O)C2SC(=O)N(Cc3cccc(C(=O)O)c3)C2=O)cc1` (centres unmarked) is lower in “hERG current change (%, negative = inhibition) at 1uM” value: 20.2% for the first, 15.2% for the second.

Compared with `CCN(CC)S(=O)(=O)c1ccc(N2CCN(c3cccc(OC)c3)CC2)c([N+](=O)[O-])c1`, `COc1ccc(CNC(=O)CN(c2cccc([N+](=O)[O-])c2)S(C)(=O)=O)cc1` is higher in “hERG current change (%, negative = inhibition) at 1uM” value: 5.03% for the first, 8.45% for the second.

Compared with `Cc1ccc(Nc2ncnc3sccc23)c(C)c1`, `Cc1cc(C(=O)Nc2cccc3ncccc23)no1` is lower in “hERG current change (%, negative = inhibition) at 1uM” value: 10.5% for the first, 10.2% for the second.

Compared with `COc1ccc(NC(=O)COc2ccc(/C=C/c3cc[n+](C)cc3)cc2OC)cc1.[I-]`, `COc1ccc(NC(=O)c2cc(-c3ccc(C)cc3O)n[nH]2)c(OC)c1` is lower in “hERG current change (%, negative = inhibition) at 1uM” value: 17.7% for the first, 13.4% for the second.

First: COc1ccc(NC(=O)/C=C/C(=O)O)c(OC)c1
Second: COc1ccc(Nc2c3c(nc4ccccc24)CCC3)c(OC)c1
The “hERG current change (%, negative = inhibition) at 1uM” value of the first is higher: 13.5% for the first, -27.8% for the second.

First: Cc1ccc(/C(N)=N/OC(=O)c2ccc3ccccc3c2)cc1
Second: O=C(c1ccc(Cl)cc1)c1cc(-c2ccccn2)c(N2CCOCC2)s1
The “hERG current change (%, negative = inhibition) at 1uM” value of the first is lower: 6.7% for the first, 7.35% for the second.

Going from `COc1ccccc1N1CCN(Cc2cc(=O)c(OCC#N)co2)CC1` to `CCOc1ccc(Cc2onc3c2C(=O)CC(C)(C)C3)cc1OCC`, the “hERG current change (%, negative = inhibition) at 1uM” value falls from 12.4% to 4.63%.

Going from `Cn1c(=O)[nH]c(=O)c2c1nc(N1CCCCCC1)n2CCSc1nc2ccccc2[nH]1` to `CS(=O)(=O)c1ccc(C(=O)CN2C(=O)NC3(CCCc4ccccc43)C2=O)cc1` (centres unmarked), the “hERG current change (%, negative = inhibition) at 1uM” value falls from 7.44% to 4.03%.

Going from `CCCNS(=O)(=O)c1ccc(NC(=O)c2ccccn2)cc1` to `CCN(CC(=O)NCc1cccs1)S(=O)(=O)c1ccc(NC(C)=O)cc1`, the “hERG current change (%, negative = inhibition) at 1uM” value rises from -3.45% to 6.09%.

Going from `CCCCc1cc(=O)oc2cc(C)c(CN3CCCC3)c(O)c12` to `CC(C)CCC(CCN1CCCC1)c1ccc2c(c1)OCO2.O=C(O)C(=O)O` (centres unmarked), the “hERG current change (%, negative = inhibition) at 1uM” value falls from -7.77% to -83.3%.

Going from `COC(=O)N/N=C1/C/C(=N\NC(=O)OC)c2ccccc21` to `COc1ccc(-c2csc(NC(=O)CCNC(=O)c3ccco3)n2)cc1OC`, the “hERG current change (%, negative = inhibition) at 1uM” value falls from 10.5% to -3.11%.

Going from `CCN(CC)CCNC(=O)c1ccc(NC(=O)CC(NC(=O)c2ccccc2Cl)c2ccccc2)cc1` (centres unmarked) to `CN(C)C(CNC(=O)c1cccc(S(=O)(=O)Nc2ccc(Br)cc2)c1)c1ccco1` (centres unmarked), the “hERG current change (%, negative = inhibition) at 1uM” value falls from 14.6% to 5.02%.

Going from `CCOc1ccc(/C=C2\SC(=S)N(CC(=O)NCCCN3CCOCC3)C2=O)cc1` to `CCOc1ccc(NC2CCN(C(C)=O)CC2)cc1`, the “hERG current change (%, negative = inhibition) at 1uM” value rises from 5.32% to 13%.

First: CCOC(=O)c1ccccc1N1C(=O)C2Sc3[nH]c(=O)sc3C(/C=C/c3ccccc3)C2C1=O (centres unmarked)
Second: CC(C(=O)NCCc1ccc(S(N)(=O)=O)cc1)N1C(=O)CC(C)(C)Sc2ccccc21 (centres unmarked)
The “hERG current change (%, negative = inhibition) at 1uM” value of the first is higher: 11.1% for the first, 3.02% for the second.

Going from `O=C(Nc1ccccn1)c1ccc2c(c1)OCCO2` to `Cc1cc(C(=O)COC(=O)C2=NNC(=O)CC2)c(C)n1-c1cccc(C(F)(F)F)c1`, the “hERG current change (%, negative = inhibition) at 1uM” value falls from 9.35% to 0.965%.

Going from `Cc1cc(C)c(NC(=O)C2CCCN2CCO)c(C)c1` (centres unmarked) to `CC(C)CC(NC(=O)c1ccc(Cl)cc1Cl)C(=O)O` (centres unmarked), the “hERG current change (%, negative = inhibition) at 1uM” value rises from -9.41% to 8.36%.
